Laboratory results taken from the supplement of paper PMC3334620.
The full ranking holds about 33,000 sequences; the median of “E-score (-0.5 to 0.5)” is about -0.035, and the highest 2% start at about 0.34. The list shows a part of the results.

Target: T1, Mot3 (UniProt P54785)
T1 sequence: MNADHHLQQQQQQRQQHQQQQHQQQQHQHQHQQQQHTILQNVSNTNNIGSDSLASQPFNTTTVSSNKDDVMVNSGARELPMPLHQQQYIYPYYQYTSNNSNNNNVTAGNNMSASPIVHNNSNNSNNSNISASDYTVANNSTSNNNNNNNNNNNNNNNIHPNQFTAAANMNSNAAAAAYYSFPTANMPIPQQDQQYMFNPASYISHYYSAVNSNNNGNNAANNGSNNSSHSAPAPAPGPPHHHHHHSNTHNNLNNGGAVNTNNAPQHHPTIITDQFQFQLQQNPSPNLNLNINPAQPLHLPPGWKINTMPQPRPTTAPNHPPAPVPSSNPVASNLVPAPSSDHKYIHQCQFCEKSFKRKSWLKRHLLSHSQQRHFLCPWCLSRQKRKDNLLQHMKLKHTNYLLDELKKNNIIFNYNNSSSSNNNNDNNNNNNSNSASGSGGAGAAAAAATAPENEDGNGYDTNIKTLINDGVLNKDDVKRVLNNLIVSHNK
Assay: PBM E-score (8-mer binding enrichment) (E-score (-0.5 to 0.5)); higher = stronger / more preferred TF binding; most listed sequences are background and not binding sites
Conditions: protein concentration: 200 nM; construct: GST-full length
Protocol: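 Universal 'all 10-mer' protein binding microarrays (Agilent AMADID 015681) probed with GST-tagged S. cerevisiae TFs (full-length or DBD) made by in vitro transcription/translation (PURExpress), about 100-200 nM. Bound TF was detected with fluorescent anti-GST. Each ungapped 8-mer (which stands for itself and its reverse complement) is scored by the PBM enrichment score (E-score), a modified Wilcoxon-Mann-Whitney statistic from -0.5 to +0.5, computed with the Universal PBM Analysis Suite. Scale: above 0.35 generally sequence-specific binding.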

Row | Sequence | PBM E-score
1 | ACAATTAT | 0.204
2 | ACCAGACT | -0.13
3 | CCTAAAAA | 0.146
4 | TGGCAAAA | 0.0985
5 | CCAGTTAC | -0.0733
6 | ATCCCAGG | -0.181
7 | ATATAGTG | -0.0368
8 | ACCGCACG | -0.0455
9 | ACTCGCAC | -0.285
10 | CCCCTATC | -0.227
11 | GAAGAGCC | -0.106
12 | AGTCCGTA | -0.00492
13 | GCCCCAAC | -0.131
14 | AGGTCATC | -0.243
15 | AATGTTCC | 0.187
16 | CCCGTCGG | -0.086
17 | CAATTGCG | 0.138
18 | GTTCACTA | -0.0105
19 | GCCGTTAA | -0.161
20 | AAGAGGTC | -0.361
21 | ATCAACTG | -0.0772
22 | ACAGCCTA | 0.126

Row | Sequence | PBM E-score
23 | GCATCCTA | -0.173
24 | CAGGAGAC | 0.0282
25 | CTTTGCAC | 0.149
26 | ACATAGCG | 0.188
27 | GGGAAGTA | -0.0915
28 | TCCCCGAA | -0.225
29 | GGTCCTAA | -0.0727
30 | CGCCTAGA | -0.088
31 | CATAGGCA | 0.476
32 | GACGCATC | -0.109
33 | GTCACTTA | 0.0144
34 | ATGGGCCG | -0.159
35 | TTAATTAA | 0.0121
36 | ACGACTCA | 0.0427
37 | CAATCGCA | -0.0193
38 | CCGCTGTA | -0.0031
39 | CGCCCACG | -0.3
40 | AGTATCTA | -0.0872
41 | CCTTAGGC | 0.146
42 | AGTGTGCG | -0.149
43 | GGATCTGA | -0.193
44 | ATTCGTCA | -0.0191

Row | Sequence | PBM E-score
45 | ACCCTGAC | -0.152
46 | ATGGTATC | -0.272
47 | GTTATTGA | 0.0955
48 | CAATGGGA | -0.0576
49 | ACGATTCC | -0.0992
50 | ATGGTGTC | -0.0757
51 | GAATGGAC | -0.107
52 | CCGTATTA | 0.123
53 | AAATATGC | -0.131
54 | TAGGTATA | -0.0008
55 | TCCGCCCA | -0.14
56 | GGTGGCTA | -0.108
57 | AAATCCCA | -0.154
58 | CCAACCGC | -0.169
59 | AATTTAGA | -0.016
60 | GATTATTA | 0.104
61 | CCGGGTCC | -0.279
62 | TAATACAA | 0.257
63 | AAGATTAT | -0.0537
64 | TCCCTTAA | 0.126
65 | GTTGCAGA | 0.0146
66 | TTCTACAA | 0.204

Row | Sequence | PBM E-score
67 | AGAATGAT | 0.0126
68 | GTTCGTAA | 0.145
69 | GTTGTCCA | 0.0581
70 | AAATCCAG | -0.0517
71 | AAGTACTC | 0.0593
72 | CAATAGTA | 0.138
73 | AGCTGTGA | -0.134
74 | CTTTAGTA | 0.025
75 | TGAAGGCA | 0.483
76 | CATGCATA | 0.226
77 | TCGGTGCA | 0.0212
78 | TAGTGGAA | -0.00095
79 | CTCACATA | 0.0931
80 | CGGCCCCA | -0.362
81 | ATCGAGCC | -0.12
82 | GCTTAACA | 0.229
83 | GCGCCGGA | -0.175
84 | CGGCGATC | -0.211
85 | CCGGCAGA | -0.299
86 | ACGCTTAT | -0.0877
87 | GACCAGGC | 0.0599
88 | TAATTCCA | 0.0253

Row | Sequence | PBM E-score
89 | ATTTGGAA | 0.0422
90 | CTAGGATC | -0.0652
91 | GAGTCCTA | -0.116
92 | ATAGGGTA | -0.0483
93 | GCAGAGCA | -0.113
94 | AACTCCAC | 0.0809
95 | AAGGTCAA | 0.00464
96 | CTTGCGAC | -0.377
97 | AGAGACAG | -0.151
98 | AGATTAGC | -0.0474
99 | GTGCAGAA | 0.0245
100 | CAATGGTC | -0.00491
101 | CAAATCCG | -0.0986
102 | AAAGGTTC | 0.12
103 | TCAGTGCA | 0.0186
104 | CAGCAGGA | 0.11
105 | AACCGGGA | -0.223
106 | GAACACAC | 0.173
107 | CTTGGTCC | -0.0537
108 | CACAACAG | 0.181
109 | AGAATACG | 0.227
110 | AAGGGAAG | 0.0435
